# Reference: the supplement of paper PMC10338343
# ± gives the standard deviation. The list shows a part of the results, in another mix than the full data.
# System: MIWI (PIWIL1) piRISC loaded with L1MC piRNA (30 nt)
# Assay: pre-steady-state target cleavage rate (min^-1); MIWI and MILI are mouse PIWI proteins and EfPiwi is from a freshwater sponge; tags in brackets are library labels; higher = faster piRNA-guided slicing of the target
# Details: guide: L1MC piRNA 5'p-UAACUAAAUACUAUGCAAGCUGUAGGUCCU; auxiliary factor: 500 nM mouse GTSF1
# Protocol: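 Cleave-'n-Seq: a library of target RNAs (target site embedded in constant flanks, ACAGCATTCCGCGTTAGTGATATCCG... 5' flank; DNA-blocked outside the site) at 0.1 nM was incubated with 1 nM active mouse MILI or MIWI piRISC (synthetic 5'-monophosphorylated piRNA guide) with or without 500 nM mouse GTSF1 at 33 °C for 1 min to 16 h. Uncleaved targets were sequenced and normalised to non-target controls, and the pooled three trials were fitted to a burst-and-steady-state model to give the pre-steady-state cleavage rate (min^-1; k3 is constrained to at most 1e-4). Sequence is the target site only; target names encode pairing extent (gX:gY) and contiguous / 1-mismatch / 2-mismatch / bulge geometry. Fits with R² ≤ 0 are excluded.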
row,Sequence,pre-steady-state target cleavage rate
1,UCGACCUACAGGUUGCAUAGUAUUUAGAUA,0.392 ± 0.04
2,UCCUCCUACAGCUUGCAUACAAUUUAGAAA,0.0177 ± 0.008
3,UCCACCUACAGCUAGCAUAGUAUUUAGAAA,0.318 ± 0.054
4,UCCUGGAUCAGCUUUCAUAGUAUUUAGUUA,0.49 ± 0.028
5,UCGACCUAGAGCUUGCAUUGUAUUUAGUUA,0.892 ± 0.029
6,UCGACCUACAGCUUGGCAUAGUAUUUAGUUA,1.24 ± 0.2
7,UGCUCCUACAGCUUGCAUAGUAUUUUCAAA,0.263 ± 0.036
8,AGGACCUACAGCUUGCAUAGUAUAUAGAUA,0.339 ± 0.049
9,UCCUGGUACAGCUUGCAUAGUAAAAAGAAA,0.0607 ± 0.021
10,UCCACCUAGAGCAUGCAUAGUAUUUAGUUA,0.621 ± 0.096
11,UCCACCUACAGCUUGCAUAGUAUUUAUGUUA,0.416 ± 0.034
12,UCCUGGAUGAGCUUGCAUAGUAUUUACUUA,0.152 ± 0.031
13,UCCUCCAACAGCUUGCAUACUAUUUAGUUA,0.39 ± 0.017
14,UCGACCUAGAGCUUGCAUAGUAUUUACAAA,0.266 ± 0.038
15,AGGUCCUACAGCUUGGAUAGUAUUUAGUUA,1.39 ± 0.072
16,UGGACCUACAGCUUGCAUAGUUUUUAGUUA,0.473 ± 0.028
17,ACGACCUACAGCUUGCAUAGUAUUUACAAA,0.565 ± 0.054
18,UCCUGGAUGUGCUUGCAUACUAAUUAGUUA,0.00673 ± 0.0036
19,UCCUGGAUCAGCCUGCAUAGUAUUUAGUUA,1.02 ± 0.045
20,UCCUCCUUCAGCUUGCAAAGUAUUUAGUUA,1.16 ± 0.041
21,UCCUGCUACAGCUUGCAUAGUAUUAAGUAA,0.235 ± 0.033
22,UCCACCUGCAGCUUGCAUAGUAUUUAGUUA,1.15 ± 0.13

# Same assay, conditions: guide: L1MC piRNA 5'p-UAACUAAAUACUAUGCAAGCUGUAGGUCCU; auxiliary factor: none (no GTSF1)
row,Sequence,pre-steady-state target cleavage rate
1,UCGACCUACAGGUUGCAUAGUAUUUAGAUA,0.0156 ± 0.0035
2,UCCUGGAUCAGCUUUCAUAGUAUUUAGUUA,0.0103 ± 0.0023
3,UCGACCUAGAGCUUGCAUUGUAUUUAGUUA,0.0238 ± 0.0066
4,UCGACCUACAGCUUGGCAUAGUAUUUAGUUA,0.0236 ± 0.0066
5,AGGACCUACAGCUUGCAUAGUAUAUAGAUA,0.0149 ± 0.0051
6,UCCACCUAGAGCAUGCAUAGUAUUUAGUUA,0.0151 ± 0.0026
7,UCCACCUACAGCUUGCAUAGUAUUUAUGUUA,0.0318 ± 0.0075
8,UCCUGGAUGAGCUUGCAUAGUAUUUACUUA,0.0197 ± 0.0045
9,UCCUGGAUGUCGAACGUUAGUAUAAUCAAA [g8:g13:cont:t1A],< 0.0001
10,UCCUCCAACAGCUUGCAUACUAUUUAGUUA,0.0364 ± 0.0072
11,UCGACCUAGAGCUUGCAUAGUAUUUACAAA,0.0047 ± 0.0028
12,AGGUCCUACAGCUUGGAUAGUAUUUAGUUA,0.079 ± 0.014
13,UGGACCUACAGCUUGCAUAGUUUUUAGUUA,0.0341 ± 0.0085
14,ACGACCUACAGCUUGCAUAGUAUUUACAAA,0.0113 ± 0.0046
15,UCCUGGAUCAGCCUGCAUAGUAUUUAGUUA,0.0431 ± 0.008
16,UCCUCCUUCAGCUUGCAAAGUAUUUAGUUA,0.0323 ± 0.0072
17,UCCUGCUACAGCUUGCAUAGUAUUAAGUAA,0.00572 ± 0.0029
18,UCCACCUGCAGCUUGCAUAGUAUUUAGUUA,0.0541 ± 0.011
